From paper PMC12407064 come the findings set out here.

Chains of the proteins cited; added tags and fusions are not shown.
UniProt Q9Y508: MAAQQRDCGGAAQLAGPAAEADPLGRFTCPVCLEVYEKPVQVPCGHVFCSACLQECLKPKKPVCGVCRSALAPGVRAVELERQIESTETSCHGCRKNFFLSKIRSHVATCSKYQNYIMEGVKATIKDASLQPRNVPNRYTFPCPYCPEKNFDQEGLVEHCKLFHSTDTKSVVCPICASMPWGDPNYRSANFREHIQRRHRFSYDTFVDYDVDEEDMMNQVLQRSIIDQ
UniProt Q96A37: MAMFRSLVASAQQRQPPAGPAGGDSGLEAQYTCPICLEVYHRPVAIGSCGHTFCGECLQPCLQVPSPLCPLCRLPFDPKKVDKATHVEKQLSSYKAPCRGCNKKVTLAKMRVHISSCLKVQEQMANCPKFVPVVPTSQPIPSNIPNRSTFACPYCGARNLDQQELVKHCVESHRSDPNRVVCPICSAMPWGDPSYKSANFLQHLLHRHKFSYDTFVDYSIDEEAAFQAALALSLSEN
UniProt O95271: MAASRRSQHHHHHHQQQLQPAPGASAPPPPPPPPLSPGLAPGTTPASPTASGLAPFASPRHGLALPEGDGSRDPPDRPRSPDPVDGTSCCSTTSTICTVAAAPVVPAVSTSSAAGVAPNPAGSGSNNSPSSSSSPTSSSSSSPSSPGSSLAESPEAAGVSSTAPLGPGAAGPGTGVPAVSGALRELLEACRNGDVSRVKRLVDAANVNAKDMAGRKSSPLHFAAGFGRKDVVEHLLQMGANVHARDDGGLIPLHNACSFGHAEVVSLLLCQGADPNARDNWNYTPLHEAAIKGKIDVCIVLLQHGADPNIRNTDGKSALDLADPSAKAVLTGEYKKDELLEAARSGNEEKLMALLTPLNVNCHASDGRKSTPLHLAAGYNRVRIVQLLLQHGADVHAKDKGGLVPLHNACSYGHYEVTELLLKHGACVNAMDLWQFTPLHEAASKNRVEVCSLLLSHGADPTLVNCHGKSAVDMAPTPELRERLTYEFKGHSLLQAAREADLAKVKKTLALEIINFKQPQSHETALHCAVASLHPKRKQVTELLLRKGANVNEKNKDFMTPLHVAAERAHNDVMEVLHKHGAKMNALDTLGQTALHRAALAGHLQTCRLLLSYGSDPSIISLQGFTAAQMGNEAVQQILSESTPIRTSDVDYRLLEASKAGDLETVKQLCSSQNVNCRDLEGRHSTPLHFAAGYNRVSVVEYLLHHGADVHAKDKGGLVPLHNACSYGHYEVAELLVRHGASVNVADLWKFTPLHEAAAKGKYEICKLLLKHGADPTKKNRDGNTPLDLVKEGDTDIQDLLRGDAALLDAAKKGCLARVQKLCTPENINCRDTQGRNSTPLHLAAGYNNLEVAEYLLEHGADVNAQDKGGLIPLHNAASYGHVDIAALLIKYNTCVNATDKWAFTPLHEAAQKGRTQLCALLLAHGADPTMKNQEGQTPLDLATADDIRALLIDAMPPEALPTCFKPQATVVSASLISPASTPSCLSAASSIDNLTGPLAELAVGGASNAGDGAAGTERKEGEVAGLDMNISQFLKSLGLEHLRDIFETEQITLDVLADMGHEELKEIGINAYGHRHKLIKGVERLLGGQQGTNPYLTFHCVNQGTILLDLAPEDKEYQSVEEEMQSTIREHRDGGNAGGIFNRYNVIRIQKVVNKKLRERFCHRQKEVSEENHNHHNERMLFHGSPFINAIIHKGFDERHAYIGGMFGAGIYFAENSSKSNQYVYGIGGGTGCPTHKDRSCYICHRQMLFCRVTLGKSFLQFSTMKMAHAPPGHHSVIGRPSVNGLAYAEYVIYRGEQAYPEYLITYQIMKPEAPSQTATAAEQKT

Residue numbers refer to the chain shown, from its start. Results are given in words; binding and its absence hold for the method and conditions named. In cells and extracts the contact can be indirect. Some results given as binding are weak or reduced against the parent protein; the word gives no strength. For some of these results: Tags and fused reporters may be left off the sequences shown.

Assay [1] has as its target T1, MycDTX3 (pRK5-3MycDTX3.WT, 1 to 347) (UniProt Q8N9I9).
T1 sequence: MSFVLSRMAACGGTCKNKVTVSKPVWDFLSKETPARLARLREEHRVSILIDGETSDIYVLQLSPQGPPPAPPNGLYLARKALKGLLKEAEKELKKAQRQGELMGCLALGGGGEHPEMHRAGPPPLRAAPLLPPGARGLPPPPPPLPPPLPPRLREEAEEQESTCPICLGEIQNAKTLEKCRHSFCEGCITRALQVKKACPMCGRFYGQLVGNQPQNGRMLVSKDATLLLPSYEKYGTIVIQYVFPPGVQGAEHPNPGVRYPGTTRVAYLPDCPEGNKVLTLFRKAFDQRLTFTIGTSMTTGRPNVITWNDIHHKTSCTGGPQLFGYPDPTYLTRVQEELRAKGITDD
As to the kind of experiment: co-IP; anti-Myc beads, 2 hours at 4°C, lysates of transfected TNKS1/2 DKO HEK293T cells in TNE buffer; immunoblot.

Assay [2] concerns the target T2, FlagDTX3.CD (C164S/C167S) (UniProt Q8N9I9).
T2 sequence: T1 sequence with C164S, C167S
Briefly: co-IP; anti-Flag beads, 2 hours at 4°C, lysates of transfected TNKS1/2 DKO HEK293T cells in TNE buffer (10 mM tris pH 7.8, 1% Nonidet P-40, 0.15 M NaCl, 1 mM EDTA, PARGi, NEM); immunoblot; in Fig. 6F without or with co-transfected MycDTX3. On the technique in general: Immunoblotting shows a protein as a band on a membrane.

For another assay, the target named is T3, FlagDTX2.RD (384 to 622) (UniProt Q86UW9).
T3 sequence: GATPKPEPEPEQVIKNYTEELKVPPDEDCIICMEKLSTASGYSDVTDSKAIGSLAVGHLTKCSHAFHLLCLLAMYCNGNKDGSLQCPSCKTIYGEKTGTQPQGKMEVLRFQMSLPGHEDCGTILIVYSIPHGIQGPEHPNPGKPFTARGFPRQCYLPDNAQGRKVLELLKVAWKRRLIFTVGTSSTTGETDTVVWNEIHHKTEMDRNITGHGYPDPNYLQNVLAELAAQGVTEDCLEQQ
The description is as above.

The next assay concerns the target T4, FlagDTX3.RD (152 to 347) (UniProt Q8N9I9).
T4 sequence: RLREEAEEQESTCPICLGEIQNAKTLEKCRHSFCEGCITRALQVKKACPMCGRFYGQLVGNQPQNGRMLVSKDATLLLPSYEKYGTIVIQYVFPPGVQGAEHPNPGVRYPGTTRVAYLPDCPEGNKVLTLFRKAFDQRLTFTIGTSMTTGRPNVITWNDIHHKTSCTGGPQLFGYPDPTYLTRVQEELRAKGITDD
The assay is described as above.

In assay [3] the target is T5, FlagDTX2.CD (C412A/C415A) (UniProt Q86UW9).
T5 sequence: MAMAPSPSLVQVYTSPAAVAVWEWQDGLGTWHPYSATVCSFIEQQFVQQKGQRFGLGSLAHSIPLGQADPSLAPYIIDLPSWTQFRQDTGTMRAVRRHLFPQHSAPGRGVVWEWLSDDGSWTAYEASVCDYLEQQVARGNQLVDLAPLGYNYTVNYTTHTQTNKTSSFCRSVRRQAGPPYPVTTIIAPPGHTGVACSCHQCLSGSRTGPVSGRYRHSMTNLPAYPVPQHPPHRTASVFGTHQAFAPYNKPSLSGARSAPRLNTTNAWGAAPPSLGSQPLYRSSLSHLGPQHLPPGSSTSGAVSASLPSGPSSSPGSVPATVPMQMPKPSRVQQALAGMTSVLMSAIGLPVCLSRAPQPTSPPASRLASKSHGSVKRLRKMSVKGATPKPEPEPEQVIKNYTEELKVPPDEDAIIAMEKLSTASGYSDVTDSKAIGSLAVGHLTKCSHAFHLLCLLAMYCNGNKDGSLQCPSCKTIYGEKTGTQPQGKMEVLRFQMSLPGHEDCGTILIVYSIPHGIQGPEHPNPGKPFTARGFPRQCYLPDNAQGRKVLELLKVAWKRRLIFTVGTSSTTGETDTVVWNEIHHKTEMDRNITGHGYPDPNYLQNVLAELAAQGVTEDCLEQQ
The description is as above.

The next assay concerns the target T6, FlagDTX2.WWE (1 to 187) (UniProt Q86UW9).
T6 sequence: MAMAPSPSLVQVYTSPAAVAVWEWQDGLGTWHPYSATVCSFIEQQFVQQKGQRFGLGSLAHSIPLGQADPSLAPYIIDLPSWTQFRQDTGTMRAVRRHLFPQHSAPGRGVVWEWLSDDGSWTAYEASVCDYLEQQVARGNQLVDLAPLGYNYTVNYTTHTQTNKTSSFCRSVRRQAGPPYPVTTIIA
The assay is described as above.

In a further assay the target is T7, FlagDTX3.WT (1 to 347) (UniProt Q8N9I9).
T7 sequence: T1 sequence
Described as above.

Assay [4] has as its target FlagRNF114 (pCMV3FlagRNF114) (UniProt Q9Y508). Described as above.
For assay [5], the target named is T8, FlagDTX2.PRD (176 to 622) (UniProt Q86UW9).
T8 sequence: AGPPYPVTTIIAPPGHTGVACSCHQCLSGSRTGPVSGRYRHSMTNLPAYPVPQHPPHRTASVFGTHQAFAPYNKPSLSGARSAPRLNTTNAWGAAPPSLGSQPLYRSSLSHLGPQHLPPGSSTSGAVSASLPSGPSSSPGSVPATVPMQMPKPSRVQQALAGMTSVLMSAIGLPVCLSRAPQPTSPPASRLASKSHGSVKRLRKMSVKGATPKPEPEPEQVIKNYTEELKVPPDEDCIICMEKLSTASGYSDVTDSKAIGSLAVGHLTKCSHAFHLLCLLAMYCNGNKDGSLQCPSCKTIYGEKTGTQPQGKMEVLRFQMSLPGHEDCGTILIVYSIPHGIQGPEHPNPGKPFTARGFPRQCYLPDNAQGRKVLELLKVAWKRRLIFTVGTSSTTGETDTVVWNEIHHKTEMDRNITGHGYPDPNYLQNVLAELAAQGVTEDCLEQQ
Described as above.

In a further assay the target is T9, FlagDTX2.WT (1 to 622) (UniProt Q86UW9).
T9 sequence: T5 sequence with A412C, A415C
Described as above.

In assay [6] the target is T10, FlagDTX2.WWE** (W24A/W114A) (UniProt Q86UW9).
T10 sequence: T5 sequence with W24A, W114A, A412C, A415C
The assay is described as above.

The target in assay [7] is FlagRNF166 (pCMV-3XF-RNF166) (UniProt Q96A37). The description is as above.

Take “FlagRNF114 (pCMV3FlagRNF114) (from UniProt Q9Y508 1-228)”: in [1], the binding result is “binds”.

With “TNKS (tankyrase 1; plasmid TNKS.WT (TT20.WT)) (from UniProt O95271 1-1327)”, the binding entry in [2] is on record as “binds”; with FlagDTX2.RD (384 to 622), “no binding”; with FlagDTX3.RD (152 to 347), “binds”; in assay [3], “binds”; with FlagDTX2.WWE (1 to 187) it was “binds”; with FlagDTX3.WT (1 to 347), “binds”. The binding result (in assay [4]; in assay [5]; in the assay with FlagDTX2.WT (1 to 622); in assay [6]; in assay [7]) was “binds” each time.

Consider “FlagRNF166 (pCMV-3XF-RNF166) (from UniProt Q96A37 1-237)”, for which the binding result in [1] is on record as “binds”.
